# About 1,400 (0.36%) of roughly 390,000 compounds were called active. The inconclusive results got no clear call from the source; some entries with a clear call stand among them for comparison. Calls follow the shape of the dose curve; as a rule, active = well fitted inhibition curve with a large enough effect; inconclusive = small, poorly fitted or top-dose-only effect; inactive = no such curve, though single readings can be large or run the other way. Potencies beside an inconclusive call are fits to weak or partial responses and may not hold up.
# Target: Flap endonuclease 1 (Homo sapiens) (UniProt P39748)
# Experiment: qHTS Assay for the Inhibitors of Human Flap endonuclease 1 (FEN1). Also: nearly all actives have a fitted effect of over 65% in size.
# Conditions: Recombinant FEN1 flap cleavage, fluorescence, 15 min; series mostly up to 114 µM; activity change, negative = inhibition: at the top concentration
# Summary of the method: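 Potency values derive from four-parameter Hill fits of normalized qHTS data. The reaction used 10 nM FEN1 preincubated 15 min at room temperature with compound, then 50 nM DNA substrate, read at 0 and 15 min.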
# % is scaled to controls: 0 for no effect and ±100 for the full control effect; potency is read from the fitted curve at half-maximal effect; tags tell the direction and shape of the fitted curve.
# UniProt P39748, sequence (P39748 whole entry, looked up): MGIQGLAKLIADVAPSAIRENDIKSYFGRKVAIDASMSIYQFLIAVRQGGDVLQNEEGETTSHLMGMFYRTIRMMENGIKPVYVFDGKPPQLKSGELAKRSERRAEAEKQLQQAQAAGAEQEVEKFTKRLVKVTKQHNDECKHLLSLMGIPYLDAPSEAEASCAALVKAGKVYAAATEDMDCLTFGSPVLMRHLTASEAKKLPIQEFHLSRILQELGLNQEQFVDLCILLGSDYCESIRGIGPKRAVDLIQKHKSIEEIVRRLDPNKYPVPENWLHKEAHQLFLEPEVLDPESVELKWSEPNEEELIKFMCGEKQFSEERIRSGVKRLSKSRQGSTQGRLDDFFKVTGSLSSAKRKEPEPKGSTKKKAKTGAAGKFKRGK
Structure (SMILES),Potency,"activity change, negative = inhibition"
CCOc1cc(/C=C2\SC(=NC)N(C)C2=O)cc(Cl)c1OC(C)=O,"inconclusive: 10 µM [inhibitor, partial curve, poor fit]",
CCCCCOC(=O)CSc1nc2sc3c(c2c(=O)n1-c1ccccc1)CC(C)(CC)OC3 (stereo not drawn),"inconclusive: 56.2 µM [inhibitor, partial curve, poor fit]",
O=C(Nc1ccc2c(c1)CCC2)c1cc(S(=O)(=O)Nc2ccc(F)cc2)c(Cl)cc1Cl,"inconclusive: 35.5 µM [inhibitor, partial curve, poor fit]",
C=CCOc1ccc(/C=C\c2nc(O)c([N+](=O)[O-])c(=O)[nH]2)cc1OC,"inconclusive: 44.7 µM [inhibitor, partial curve, poor fit]",
c1ccc(-c2noc(CSc3nnnn3C3CCCCC3)n2)cc1,"inconclusive: 89.1 µM [inhibitor, partial curve, poor fit]",
CCOc1cc(/C=C2\SC(=N)N(c3nonc3N)C2=O)ccc1OCCN1CCOCC1,"inconclusive: 79.4 µM [inhibitor, single point]",
CC(C)Sc1oc(-c2ccco2)nc1S(=O)(=O)c1ccc(F)cc1,,inactive: -17.9%
Cn1nc(-c2ccc(Cl)cc2)c2cc(C(=O)NCCCN3CCOCC3)sc21,"inconclusive: 50.1 µM [inhibitor, partial curve]",
CCOc1ccc(OCC)c(NC(=O)c2cnc(SC)nc2-c2ccccc2)c1,"inconclusive: 79.4 µM [inhibitor, partial curve, poor fit]",
NCCNC(=O)Cc1ccc(NC(=O)Cc2ccc(Nc3ncnc4c3ncn4[C@@H]3O[C@H](CO)[C@@H](O)[C@H]3O)cc2)cc1,"inconclusive: 70.8 µM [inhibitor, single point]",
CC1(S(=O)(=O)O)CC(=O)c2ccccc2C1=O (stereo not drawn),"inconclusive: 6.31 µM [inhibitor, partial curve]",
COc1cc(C(CCN2CCN(c3ccccc3)CC2)c2c(OC)cc(OC)c3c(C)cc(=O)oc23)cc(OC)c1OC (stereo not drawn),"inconclusive: 79.4 µM [inhibitor, partial curve, poor fit]",
Cc1nc(C)c(/C(O)=C\c2nc3ccc([N+](=O)[O-])cc3oc2=O)o1,"inconclusive: 79.4 µM [inhibitor, partial curve, poor fit]",
Cc1ccc(Cl)cc1N1CCN(C(=O)c2cc(S(=O)(=O)N3CCCC3)c[nH]2)CC1,"inconclusive: 44.7 µM [inhibitor, partial curve, poor fit]",
COc1ccc(CN(C#N)c2nc(SC)nc(N(C)C)n2)cc1,"inconclusive: 100 µM [inhibitor, single point]",
CC1CCc2c(sc(NC(=O)CCCn3cnc([N+](=O)[O-])n3)c2C(N)=O)C1 (stereo not drawn),,inactive: 2.1%
COc1cc(/C=N/Nc2nn3cnnc3c3ccccc23)ccc1O,"inconclusive: 39.8 µM [inhibitor, partial curve]",
CCS(=O)(=O)N1CCc2cc(C(=O)Nc3cccc(C(C)=O)c3)ccc21,,inactive: 3.83%
Cc1ccc2[nH]cc(/C=C/c3cc[n+](C)cc3)c2c1,"inconclusive: 44.7 µM [inhibitor, partial curve]",

Structure (SMILES),Potency,"activity change, negative = inhibition"
Fc1ccc(C2c3[nH]c4ccccc4c3CCN2Cc2ccoc2)cc1 (stereo not drawn),"inconclusive: 89.1 µM [inhibitor, partial curve, poor fit]",
C/C(=N/NC(=O)c1cc2ccccc2cc1O)c1ccco1,,inactive: 0.519%
O=C(Cn1nc(-c2ccc(Cl)cc2)c2ccccc2c1=O)Nc1cccc(C(F)(F)F)c1,"inconclusive: 100 µM [inhibitor, single point]",
Cc1cccc(N(CC(=O)Nc2cccnc2)S(C)(=O)=O)c1,"inconclusive: 89.1 µM [inhibitor, single point]",
COc1ccc(NS(=O)(=O)c2ccc(-c3cnc(C4CC4)o3)cc2)cc1Cl,,inactive: -1.17%
COc1cc2c(NC3CCN(C)CC3)nc(N3CCCN(C)CC3)nc2cc1OCCN(C)CCN(C)C,"inconclusive: 22.4 µM [inhibitor, full curve]",
O=S(=O)(Nc1cccc2cccnc12)c1ccc2ccccc2c1,,inactive: -5.04%
Cc1ccc2c(CN(C)Cc3ccccc3)cc(=O)oc2c1C,"inconclusive: 89.1 µM [inhibitor, partial curve, poor fit]",
CCn1c2ccccc2c2nc3cc(OC)c(OC)cc3nc21,"inconclusive: 15.8 µM [inhibitor, full curve]",
COc1ccc(/C=C2\Cc3ccccc3C2=O)cc1OC,"inconclusive: 25.1 µM [inhibitor, full curve, poor fit]",
COc1ccccc1C(=O)Oc1c(Sc2ccccc2)c(C)nn1-c1ccccc1,"inconclusive: 8.91 µM [inhibitor, partial curve, poor fit]",
COc1cccc(/C=N/NC(=O)CN(CCc2ccccc2)S(=O)(=O)c2ccc(NC(C)=O)cc2)c1,"inconclusive: 89.1 µM [inhibitor, partial curve, poor fit]",
COc1ccc2[nH]c(O)c(N=NC(=O)c3ccc(NS(=O)(=O)c4cccs4)cc3)c2c1,"inconclusive: 50.1 µM [inhibitor, partial curve]",
CN1C(=O)/C(=N\OC(=O)c2cccc3ccccc23)c2ccccc21,,inactive: -3.27%
Cc1c2cc(O)c(=O)cc-2oc2cc(O)c(O)cc12,"inconclusive: 3.55 µM [inhibitor, partial curve, poor fit]",
O=C(O)c1ccc2c(c1)C(=O)N(c1ccc(/C=C/C(=O)c3ccccc3)cc1)C2=O,"inconclusive: 50.1 µM [inhibitor, partial curve, poor fit]",
CC1CCc2c(sc(NS(=O)(=O)c3ccccc3)c2C(=O)OC(C)C)C1 (stereo not drawn),,inactive: -1.56%
COc1ccc2cc3cc(C(=O)NCCCN4CCC(C)CC4)oc3nc2c1,"inconclusive: 50.1 µM [inhibitor, partial curve, poor fit]",
Cc1cc(C=C2C(=O)c3ccccc3C2=O)c(C)n1-c1ccc(C(=O)O)cc1,"inconclusive: 44.7 µM [inhibitor, partial curve, poor fit]",

# Reference: PubChem BioAssay AID588795 (National Center for Advancing Translational Sciences (NCATS), 2011)
